Results published in a collection of fitness landscapes (doi:10.1126/science.1257360).
This is one part of the list.

B1: PhoQ; a variant is named by its letters at X, in order, P23837 (parent)
chain: MKKLLRLFFPLSLRVRFLLATAAVVLVLSLAYGMVALIGYSVSFDKTTFRLLRGESNLFYTLAKWENNKLHVELPENIDKQSPTMTLIYDENGQLLWAQRDVPWLMKMIQPDWLKSNGFHEIEADVNDTSLLLSGDHSIQQQLQEVREDDDDAEMTHSVAVNVYPATSRMPKLTIVVVDTIPVELKSSYMVWSWFIYVLSANLLLVIPLLWVAAWWSLRPIEALAKEVRELEEHNRELLNPATTRELTSLVRNLNRLLKSERERYDKYRTTLTDLTHSLKTPLXXLQXXLRSLRSEKMSVSDAEPVMLEQISRISQQIGYYLHRASMRGGTLLSRELHPVAPLLDNLTSALNKVYQRKGVNISLDISPEISFVGEQNDFVEVMGNVLDNACKYCLEFVEISARQTDEHLYIVVEDDGPGIPLSKREVIFDRGQRVDTLRPGQGVGLAVAREITEQYEGKIVAGESMLGGARMEVIFGRQHSAPKDE

Variants of: B1
Experiment: enrichment ratio after two sorts for PhoP signalling (ratio (wild type AVST 3.29)); higher = more functional
Conditions: with PhoP (E. coli)
KAWH gave an enrichment ratio of no more than 0.25.
Work on RNHM yielded an enrichment ratio of no more than 0.25.
SASH showed an enrichment ratio of 12.2.
For LWTQ, the enrichment ratio was no more than 0.25.
In the case of NKGA, the enrichment ratio is reported as no more than 0.25.
Work on EMDL yielded an enrichment ratio of no more than 0.25.
With LSVD the enrichment ratio was 0.372.
Variant GCFH has an enrichment ratio of no more than 0.25.
With EMHS the enrichment ratio was no more than 0.25.
MNYR showed an enrichment ratio of no more than 0.25.
EEKL gave an enrichment ratio of no more than 0.25.
HTHD showed an enrichment ratio of no more than 0.25.
KQCT showed an enrichment ratio of no more than 0.25.
Variant LPAK has an enrichment ratio of no more than 0.25.
WLLQ was tested, and the enrichment ratio was no more than 0.25.
With SECI the enrichment ratio was 28.3.
Work on VLWQ yielded an enrichment ratio of no more than 0.25.
In the case of YGDM, the enrichment ratio is reported as 0.798.
GHKT showed an enrichment ratio of no more than 0.25.
With DARR the enrichment ratio was no more than 0.25.
NDAD was tested, and the enrichment ratio was no more than 0.25.
In the case of QDTK, the enrichment ratio is reported as no more than 0.25.
For TWYA, the enrichment ratio was no more than 0.25.
For HDAT, the enrichment ratio was no more than 0.25.
Work on QVKD yielded an enrichment ratio of no more than 0.25.
NPDS gave an enrichment ratio of no more than 0.25.
In the case of SLLV, the enrichment ratio is reported as 6.62.
YPNV was tested, and the enrichment ratio was no more than 0.25.
For GASE, the enrichment ratio was no more than 0.25.
For NTIP, the enrichment ratio was no more than 0.25.
LWME showed an enrichment ratio of no more than 0.25.
DYIH gave an enrichment ratio of no more than 0.25.
With KCCQ the enrichment ratio was no more than 0.25.
SGIP was tested, and the enrichment ratio was no more than 0.25.
For LPWE, the enrichment ratio was no more than 0.25.
In the case of REIR, the enrichment ratio is reported as no more than 0.25.
Work on SAMA yielded an enrichment ratio of 12.3.
For SGDI, the enrichment ratio was no more than 0.25.
Work on LMCQ yielded an enrichment ratio of no more than 0.25.
For NIGG, the enrichment ratio was no more than 0.25.
For QHMY, the enrichment ratio was no more than 0.25.
With EKFV the enrichment ratio was no more than 0.25.
RFML was tested, and the enrichment ratio was no more than 0.25.
Work on FVLM yielded an enrichment ratio of 8.14.
Work on DNRM yielded an enrichment ratio of no more than 0.25.
For GWPL, the enrichment ratio was no more than 0.25.
With PLHW the enrichment ratio was no more than 0.25.
In the case of LNGS, the enrichment ratio is reported as no more than 0.25.
SVFS gave an enrichment ratio of no more than 0.25.
In the case of FARK, the enrichment ratio is reported as no more than 0.25.
With DKKM the enrichment ratio was no more than 0.25.
Variant RSWA has an enrichment ratio of no more than 0.25.
SVME gave an enrichment ratio of 1.42.
Variant TNTG has an enrichment ratio of 5.72.
PDTP gave an enrichment ratio of no more than 0.25.
In the case of NFKQ, the enrichment ratio is reported as no more than 0.25.
With HPAN the enrichment ratio was no more than 0.25.
ITIE showed an enrichment ratio of no more than 0.25.
TVMG was tested, and the enrichment ratio was 1.95.
RCFK was tested, and the enrichment ratio was no more than 0.25.
Work on VCFR yielded an enrichment ratio of no more than 0.25.
DFLE was tested, and the enrichment ratio was no more than 0.25.
MWFY showed an enrichment ratio of no more than 0.25.
Variant RLGM has an enrichment ratio of no more than 0.25.
For VYNP, the enrichment ratio was no more than 0.25.
Variant HNKC has an enrichment ratio of no more than 0.25.
With ELAV the enrichment ratio was no more than 0.25.
DMRE was tested, and the enrichment ratio was no more than 0.25.
Work on WAGD yielded an enrichment ratio of no more than 0.25.
In the case of YMAW, the enrichment ratio is reported as no more than 0.25.
RRTS showed an enrichment ratio of no more than 0.25.
LVCF was tested, and the enrichment ratio was no more than 0.25.
With GYFE the enrichment ratio was no more than 0.25.
YDTQ was tested, and the enrichment ratio was no more than 0.25.
YINH showed an enrichment ratio of no more than 0.25.
VGNF showed an enrichment ratio of no more than 0.25.
MAPR showed an enrichment ratio of no more than 0.25.
Work on FGSQ yielded an enrichment ratio of no more than 0.25.
YWEP showed an enrichment ratio of no more than 0.25.
Variant LWWW has an enrichment ratio of no more than 0.25.
YIPT showed an enrichment ratio of no more than 0.25.
In the case of PCVT, the enrichment ratio is reported as no more than 0.25.
Work on DSQK yielded an enrichment ratio of no more than 0.25.
For KNTY, the enrichment ratio was no more than 0.25.
Variant TTNT has an enrichment ratio of 9.92.
VTSE gave an enrichment ratio of no more than 0.25.
VCAV showed an enrichment ratio of 2.69.
For TWGL, the enrichment ratio was no more than 0.25.
DIDC showed an enrichment ratio of no more than 0.25.
HVPQ gave an enrichment ratio of no more than 0.25.
For DCQY, the enrichment ratio was no more than 0.25.
Variant AKSY has an enrichment ratio of 2.91.
TEIW showed an enrichment ratio of no more than 0.25.
For EDWS, the enrichment ratio was no more than 0.25.
YSAL gave an enrichment ratio of no more than 0.25.
In the case of GCRL, the enrichment ratio is reported as no more than 0.25.
In the case of FDSV, the enrichment ratio is reported as no more than 0.25.
In the case of NEGQ, the enrichment ratio is reported as no more than 0.25.
In the case of RENR, the enrichment ratio is reported as no more than 0.25.
For LEKV, the enrichment ratio was no more than 0.25.
Variant ETTT has an enrichment ratio of no more than 0.25.
Work on VRLY yielded an enrichment ratio of no more than 0.25.
Work on RGTH yielded an enrichment ratio of no more than 0.25.
Work on AKQN yielded an enrichment ratio of no more than 0.25.
Work on ARAM yielded an enrichment ratio of no more than 0.25.
RLLH gave an enrichment ratio of no more than 0.25.
With TDIY the enrichment ratio was no more than 0.25.
With AMQW the enrichment ratio was no more than 0.25.
ITQD showed an enrichment ratio of no more than 0.25.
For GKWC, the enrichment ratio was no more than 0.25.
For QECN, the enrichment ratio was 9.04.
In the case of TEEG, the enrichment ratio is reported as 9.76.
In the case of TQRW, the enrichment ratio is reported as no more than 0.25.
ETGP showed an enrichment ratio of no more than 0.25.
Variant QSRK has an enrichment ratio of no more than 0.25.
With CFFS the enrichment ratio was no more than 0.25.
For NHTG, the enrichment ratio was no more than 0.25.
In the case of MIGS, the enrichment ratio is reported as 9.52.
ADHF gave an enrichment ratio of no more than 0.25.
RHTL gave an enrichment ratio of no more than 0.25.
Work on GKPK yielded an enrichment ratio of no more than 0.25.
Work on RSMC yielded an enrichment ratio of no more than 0.25.
Variant FAFA has an enrichment ratio of no more than 0.25.
LWRY was tested, and the enrichment ratio was no more than 0.25.
With HFCI the enrichment ratio was no more than 0.25.
ASIN was tested, and the enrichment ratio was 12.
CSVV showed an enrichment ratio of no more than 0.25.
Variant FFIN has an enrichment ratio of no more than 0.25.
MTDT gave an enrichment ratio of no more than 0.25.
Variant YETI has an enrichment ratio of no more than 0.25.
For IPPQ, the enrichment ratio was no more than 0.25.
With YQLK the enrichment ratio was no more than 0.25.
AAAC showed an enrichment ratio of no more than 0.25.
TDDF gave an enrichment ratio of no more than 0.25.
For LFMM, the enrichment ratio was no more than 0.25.
In the case of TMKV, the enrichment ratio is reported as no more than 0.25.
Variant PAFW has an enrichment ratio of no more than 0.25.
HCHA showed an enrichment ratio of no more than 0.25.
Variant ALDK has an enrichment ratio of no more than 0.25.
In the case of WIYR, the enrichment ratio is reported as no more than 0.25.
QCWR gave an enrichment ratio of no more than 0.25.
In the case of EYRT, the enrichment ratio is reported as no more than 0.25.
Work on FWPG yielded an enrichment ratio of no more than 0.25.
With HFGH the enrichment ratio was no more than 0.25.
For QCHL, the enrichment ratio was no more than 0.25.
Variant NAGY has an enrichment ratio of no more than 0.25.
In the case of FKHW, the enrichment ratio is reported as no more than 0.25.
MNSR gave an enrichment ratio of no more than 0.25.
Work on DEDA yielded an enrichment ratio of no more than 0.25.
For PTVY, the enrichment ratio was no more than 0.25.
For LFDD, the enrichment ratio was no more than 0.25.
MPRS was tested, and the enrichment ratio was no more than 0.25.
Work on SLHS yielded an enrichment ratio of no more than 0.25.
RQRN was tested, and the enrichment ratio was no more than 0.25.
In the case of PMPP, the enrichment ratio is reported as no more than 0.25.
QIYW was tested, and the enrichment ratio was no more than 0.25.
With SIRQ the enrichment ratio was no more than 0.25.
With NMQL the enrichment ratio was no more than 0.25.
With MFED the enrichment ratio was no more than 0.25.
With INYA the enrichment ratio was no more than 0.25.
For INLN, the enrichment ratio was no more than 0.25.
IHMV showed an enrichment ratio of no more than 0.25.
KAYT was tested, and the enrichment ratio was no more than 0.25.
TYCL was tested, and the enrichment ratio was 6.72.
With PTRE the enrichment ratio was no more than 0.25.
KIFR gave an enrichment ratio of no more than 0.25.
Variant EHFP has an enrichment ratio of no more than 0.25.
For HQEH, the enrichment ratio was 0.706.
HDAW gave an enrichment ratio of no more than 0.25.
For RPAR, the enrichment ratio was no more than 0.25.
GLVG showed an enrichment ratio of no more than 0.25.
GLRG gave an enrichment ratio of no more than 0.25.
KKTY was tested, and the enrichment ratio was no more than 0.25.
SESK showed an enrichment ratio of 5.02.
For QCCT, the enrichment ratio was no more than 0.25.
In the case of RWKR, the enrichment ratio is reported as no more than 0.25.
For DSPC, the enrichment ratio was no more than 0.25.
MCRA showed an enrichment ratio of no more than 0.25.
With FKQP the enrichment ratio was no more than 0.25.
Work on NTYT yielded an enrichment ratio of no more than 0.25.
EYTP was tested, and the enrichment ratio was no more than 0.25.
YCHS showed an enrichment ratio of no more than 0.25.
RNLC showed an enrichment ratio of no more than 0.25.
Variant HDWR has an enrichment ratio of no more than 0.25.
For HEFD, the enrichment ratio was no more than 0.25.
VIIF was tested, and the enrichment ratio was no more than 0.25.
GLRP was tested, and the enrichment ratio was no more than 0.25.
VKTC was tested, and the enrichment ratio was no more than 0.25.
With KHFS the enrichment ratio was no more than 0.25.
HEHN gave an enrichment ratio of no more than 0.25.
Work on YSPR yielded an enrichment ratio of no more than 0.25.
HKSP gave an enrichment ratio of no more than 0.25.
Work on QPSK yielded an enrichment ratio of no more than 0.25.
Variant GFQF has an enrichment ratio of no more than 0.25.
In the case of HEFN, the enrichment ratio is reported as no more than 0.25.
